Laboratory results reported in PubChem BioAssay AID504467 (National Center for Advancing Translational Sciences (NCATS), 2011).
The campaign covered roughly 330,000 compounds. About 7,700 (2.3%) were called active. Inconclusive results (about 26%) are left out. Calls follow the shape of the dose curve; as a rule, active = well fitted inhibition curve with a large enough effect; inconclusive = small, poorly fitted or top-dose-only effect, or effect the other way; inactive = flat fitted curve, though single readings scatter. The list shows a part of the results, in another mix than the full data.

assay: qHTS screen for small molecules that inhibit ELG1-dependent DNA repair in human embryonic kidney (HEK293T) cells expressing luciferase-tagged ELG1; conditions: HEK293T ELG1-luciferase reporter, luminescence, 16 h, DNA damage induced by 5-fluorouridine; series mostly up to 46.1 µM; activity change, negative = inhibition: at the top concentration; also: nearly all actives have a fitted effect of over 55% in size
How it was run: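 Cells (2,000 per well) received 5-fluorouridine plus test compound or DMSO and were incubated 16 hr at 37 °C, 5% CO2. Luciferase activity was read by luminescence 30 min after ONE-Glo addition; signal suppression marked inhibition of damage-induced ELG1 function.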
% is scaled to controls: 0 for no effect and ±100 for the full control effect; potency is read from the fitted curve at half-maximal effect.

SMILES	activity change, negative = inhibition	Potency
C=CC[C@@H](CC(=O)N[C@@H](CO)Cc1ccccc1)C(=O)N[C@@H](COC(=O)[C@@H](CC=C)CC(=O)OC(C)(C)C)Cc1c[nH]c2ccccc12	inactive: -21.4%	–
C=CC[C@H](CC(=O)NCCO)C(=O)N[C@@H](C)COC(=O)[C@H](CC=C)CC(=O)OC(C)(C)C	inactive: 3.15%	–
Cc1ccc(S(=O)(=O)N2CCCC2C(=O)NCc2ccccc2Cl)cc1 (stereo not drawn)	inactive: -15.1%	–
OCC[C@H]1C[C@H](O)[C@@H](O)[C@@]2(Cc3ccccc3CO2)O1	inactive: 7.99%	–
O=C(NCc1ccccc1)C1=C[C@H](c2ccc(C(F)(F)F)cc2)C[C@H](OCc2ccc(CO)cc2)O1	inactive: -16%	–
OCC[C@H]1C[C@@H](O)[C@H](O)[C@]2(CCCc3ccccc3O2)O1	inactive: 24.5%	–
C=CC[C@H](CC(=O)NCCO)C(=O)N[C@@H](COC(=O)[C@H](CC=C)CC(=O)OC(C)(C)C)Cc1c[nH]c2ccccc12	inactive: 18.6%	–
COC(=O)C1=C(O)/C(=C/c2ccc(OCC(=O)Nc3ccccc3)cc2)N=C1C	inactive: -3.66%	–
CCC[C@@H]1C[C@@H](C(=O)NC(C(C)Cl)[C@H]2O[C@H](SC)[C@H](O)[C@@H](O)[C@H]2O)N(C)C1 (stereo partly drawn)	inactive: -5.9%	–
COc1ccc(S(=O)(=O)N(C)C[C@H]2Oc3ccc(NC(=O)Nc4c(C)noc4C)cc3C(=O)N([C@H](C)CO)C[C@@H]2C)cc1	inactive: 1.85%	–
COc1ccc(NC(=O)N(C)C[C@@H]2Oc3c(NC(=O)Nc4c(C)noc4C)cccc3C(=O)N([C@@H](C)CO)C[C@@H]2C)cc1	inactive: 11.5%	–
COC(=O)c1ccc(OCC2c3cc(OC)c(OC)cc3CCN2C(C)=O)cc1 (stereo not drawn)	–	active: 6.51 µM
O=C(C1=C[C@@H](C2CCCCC2)C[C@@H](OCCCCO)O1)N1CCOCC1	inactive: 8.68%	–
C[C@H]1COC(=O)[C@@H](Cc2ccc(F)cc2)C/C=C\C[C@@H](CC(=O)NCCO)C(=O)N1	inactive: 14%	–
CCN(CC)c1ccc(N2C(=O)/C(=C/c3cccnc3)SC2=S)cc1	inactive: -12.3%	–
C[C@]12C(=O)N(c3ccc(Br)cc3)C(=O)N1[C@H]1c3ccccc3OC[C@@H]1[C@H]2c1ccccc1	inactive: 7.58%	–
O=C(N/C(=C/c1ccccc1)C(=O)N1CCCCCC1)c1ccccc1	inactive: -1.38%	–
COc1ccc(O)c(/C=N/NC(=O)c2ccc(OCc3cccc(Br)c3)cc2)c1	–	active: 3.66 µM
O=C(COCc1ccccc1)N[C@@H]1c2ccccc2CC[C@H]1OCc1ccccc1	inactive: -10.9%	–

SMILES	activity change, negative = inhibition	Potency
COc1ccc(/C=C2\SC(=O)N(CCC(=O)Nc3ccccc3)C2=O)cc1OC	inactive: -9.64%	–
CC(C)(O)CC[C@@H](O)[C@](C)(O)[C@H]1CC[C@@]2(O)C3=CC(=O)[C@@H]4C[C@@H](O)[C@@H](O)C[C@]4(C)C3CC[C@]12C (stereo partly drawn)	inactive: 7.89%	–
COC(=O)[C@@H]1C[C@]2(OC(=O)c3ccccc3)C=CC(=O)C[C@@H]2N1C(=O)OCc1ccccc1	–	active: 14.6 µM
CCOC(=O)[C@H]1[C@H]2COc3cc(OC)ccc3[C@@H]2N2C(=O)N(c3cccc(F)c3)C(=O)[C@@]12C	inactive: -6.72%	–
O=c1cc(-c2ccc(O)c(O)c2)oc2cc(O)c(C3OC(CO)C(O)C(O)C3O)c(O)c12 (stereo not drawn)	inactive: 8.75%	–
BrC(=C\c1ccccc1)/C=N/N1CCN(Cc2ccccc2)CC1	inactive: -10.9%	–
O=C(NCc1ccco1)/C(=C\c1ccco1)NC(=O)c1ccc(Br)o1	inactive: 1.52%	–
CC1(C)CC[C@]2(C(=O)O)CC[C@]3(C)C(=CCC4[C@@]5(C)CC[C@H](O)C(C)(C)C5CC[C@]43C)C2C1 (stereo partly drawn)	inactive: 3.32%	–
O=C(CCN1C(=O)/C(=C/c2ccccc2)SC1=S)NCCCN1CCOCC1	inactive: -15.5%	–
COc1ccccc1N1CCN(CC(O)COc2cccc3ccccc23)CC1 (stereo not drawn)	inactive: -25.6%	–
CC(=O)OC[C@]12CC[C@H]3[C@@](C)(CC[C@H]4C(C)(C)CCC[C@]34C)[C@@H]1C[C@H](C1=CC(=O)O[C@@H]1OC(C)=O)O2	inactive: -12.7%	–
O=C1OC[C@@H]2CCCN2C(=O)[C@H](CC(=O)N(CCO)Cc2ccccc2)C/C=C\C[C@H]1Cc1ccc(F)cc1	inactive: 1.13%	–
COc1ccc(S(=O)(=O)N(C)C[C@H]2Oc3ccc(NS(=O)(=O)c4cn(C)cn4)cc3C(=O)N([C@H](C)CO)C[C@@H]2C)cc1	inactive: 8.33%	–
O=C(CSc1n[nH]c(=O)[nH]c1=O)N/N=C/C=C/c1ccccc1	inactive: 13.9%	–
OCCN(CCO)CC(O)COc1ccc(Br)cc1 (stereo not drawn)	inactive: 11.4%	–
CC(C)C(NC(=O)c1ccccc1F)C(=O)Nc1ccc2c(c1)OCO2 (stereo not drawn)	inactive: 13.5%	–
O=C(CCCN1C(=O)S/C(=C/C=C/c2ccccc2)C1=O)Nc1ccc(C(=O)O)cc1	inactive: 1.24%	–
CCC[C@@H]1C[C@@H](C(=O)N[C@@H](C2O[C@H](SC)[C@H](O)[C@@H](O)[C@H]2O)[C@H](C)Cl)N(C)C1 (stereo partly drawn)	inactive: 1.33%	–
CCOC(=O)[C@@H]1[C@H]2COc3cc(OC)ccc3[C@@H]2N2C(=O)N(c3cccc(C)c3)C(=O)[C@@]12C	inactive: 5.68%	–
